In the supplement of paper PMC8948288:
Shown are siRNA guide strands that differ only in the seed, positions 2 to 7.

Assays:
H4 = assay: cell viability relative to siNT1 (ATP content); H4 human neuroglioma and GL261 mouse glioma; higher = less toxic; conditions: siRNA concentration 10 nM; 96 h; human
Description: (§1)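 Arrayed screen of all 4096 6mer seeds. Each seed sits at guide-strand positions 2-7 of a neutral 19mer siRNA backbone (siNT1-based, passenger strand 2'-O-methyl modified at positions 1-2 to block RISC loading, 3' DNA overhangs). The guide strand is built here as U + seed + ACAUGUAAACCA. Cells were reverse transfected in triplicate in 384-well plates (H4 at 10 nM, GL261 at 25 nM) with Lipofectamine RNAiMAX. Viability was read as ATP content (CellTiter-Glo) 96 h after transfection and normalised to siNT1 (%).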

GL261 = assay: as above; conditions: siRNA concentration 25 nM; 96 h; mouse
Description: as §1
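Also: cells reverse transfected with siRNA duplexes via lipid reagent, ATP read by luminescence, triplicate wells, values scaled to mean viability with non-targeting control siNT1.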

Sequence | cell viability (H4) [%] | cell viability (GL261) [%]
UAGUUCCACAUGUAAACCA | 17 | 8.78
UAGUUCGACAUGUAAACCA | 77.9 | 40.1
UAGUUCUACAUGUAAACCA | 67.7 | 18.6
UAGUUGAACAUGUAAACCA | 69.9 | 58.6
UAGUUGCACAUGUAAACCA | 16.6 | 19.7
UAGUUGGACAUGUAAACCA | 39.1 | 35.8
UAGUUGUACAUGUAAACCA | 37 | 18.2
UAGUUUAACAUGUAAACCA | 116 | 71.3
UAGUUUCACAUGUAAACCA | 89.7 | 54.7
UAGUUUGACAUGUAAACCA | 83.8 | 42.2
UAGUUUUACAUGUAAACCA | 118 | 65.1
UAUAAAAACAUGUAAACCA | 81.8 | 67.7
UAUAAACACAUGUAAACCA | 93 | 39.5
UAUAAAGACAUGUAAACCA | 90.1 | 49.9
UAUAAAUACAUGUAAACCA | 101 | 58.7
UAUAACAACAUGUAAACCA | 118 | 45.7
UAUAACCACAUGUAAACCA | 79.5 | 39.5
UAUAACGACAUGUAAACCA | 93.7 | 47.8
UAUAACUACAUGUAAACCA | 99.5 | 50.9
UAUAAGAACAUGUAAACCA | 95.3 | 73.4
UAUAAGCACAUGUAAACCA | 81.7 | 30.5
UAUAAGGACAUGUAAACCA | 94.6 | 69.2
UAUAAGUACAUGUAAACCA | 104 | 58.3

Sequence | cell viability (H4) [%] | cell viability (GL261) [%]
UAUAAUAACAUGUAAACCA | 103 | 51.5
UAUAAUCACAUGUAAACCA | 92.2 | 56.1
UAUAAUGACAUGUAAACCA | 80 | 72.5
UAUAAUUACAUGUAAACCA | 83.2 | 47.9
UAUACAAACAUGUAAACCA | 98 | 68.6
UAUACACACAUGUAAACCA | 65.3 | 42.8
UAUACAGACAUGUAAACCA | 120 | 45.9
UAUACAUACAUGUAAACCA | 109 | 68.1
UAUACCAACAUGUAAACCA | 97.2 | 70.2
UAUACCCACAUGUAAACCA | 52.9 | 46.7
UAUACCGACAUGUAAACCA | 82.4 | 56.5
UAUACCUACAUGUAAACCA | 74.5 | 73.2
UAUACGAACAUGUAAACCA | 106 | 59.6
UAUACGCACAUGUAAACCA | 116 | 57.2
UAUACGGACAUGUAAACCA | 91.9 | 55.2
UAUACGUACAUGUAAACCA | 81.1 | 64.1
UAUACUAACAUGUAAACCA | 115 | 60.6
UAUACUCACAUGUAAACCA | 79.7 | 42
UAUACUGACAUGUAAACCA | 89.3 | 53.5
UAUACUUACAUGUAAACCA | 77.7 | 50.2
UAUAGAAACAUGUAAACCA | 104 | 66
UAUAGACACAUGUAAACCA | 71 | 56.3
UAUAGAGACAUGUAAACCA | 104 | 81.1

Sequence | cell viability (H4) [%] | cell viability (GL261) [%]
UAUAGAUACAUGUAAACCA | 108 | 61.5
UAUAGCAACAUGUAAACCA | 104 | 77.3
UAUAGCCACAUGUAAACCA | 38.1 | 16.3
UAUAGCGACAUGUAAACCA | 79.2 | 73.6
UAUAGCUACAUGUAAACCA | 72.9 | 35.5
UAUAGGAACAUGUAAACCA | 117 | 53.3
UAUAGGCACAUGUAAACCA | 32.4 | 7.55
UAUAGGGACAUGUAAACCA | 96.7 | 37.2
UAUAGGUACAUGUAAACCA | 57.2 | 41.3
UAUAGUAACAUGUAAACCA | 118 | 75
UAUAGUCACAUGUAAACCA | 99 | 59.9
UAUAGUGACAUGUAAACCA | 99.5 | 70
UAUAGUUACAUGUAAACCA | 93 | 85.7
UAUAUAAACAUGUAAACCA | 106 | 80.5
UAUAUACACAUGUAAACCA | 71.5 | 56.4
UAUAUAGACAUGUAAACCA | 76.2 | 66.6
UAUAUAUACAUGUAAACCA | 84 | 46.8
UAUAUCAACAUGUAAACCA | 78.1 | 73.3
UAUAUCCACAUGUAAACCA | 67.7 | 21.8
UAUAUCGACAUGUAAACCA | 86.2 | 71.8
UAUAUCUACAUGUAAACCA | 99.1 | 68.5
UAUAUGAACAUGUAAACCA | 88.7 | 46.3
UAUAUGCACAUGUAAACCA | 14.9 | 20.2

Sequence | cell viability (H4) [%] | cell viability (GL261) [%]
UAUAUGGACAUGUAAACCA | 85.1 | 57.2
UAUAUGUACAUGUAAACCA | 95.9 | 42.3
UAUAUUAACAUGUAAACCA | 105 | 53.2
UAUAUUCACAUGUAAACCA | 84 | 55.2
UAUAUUGACAUGUAAACCA | 95.8 | 49.8
UAUAUUUACAUGUAAACCA | 82.4 | 63.7
UAUCAAAACAUGUAAACCA | 99.1 | 53
UAUCAACACAUGUAAACCA | 101 | 38.2
UAUCAAGACAUGUAAACCA | 110 | 47.5
UAUCAAUACAUGUAAACCA | 117 | 53.2
UAUCACAACAUGUAAACCA | 110 | 39.6
UAUCACCACAUGUAAACCA | 98.5 | 12.2
UAUCACGACAUGUAAACCA | 88.2 | 41.9
UAUCACUACAUGUAAACCA | 81.8 | 21.8
UAUCAGAACAUGUAAACCA | 89.4 | 40.4
UAUCAGCACAUGUAAACCA | 71.2 | 18.3
UAUCAGGACAUGUAAACCA | 108 | 30.7
UAUCAGUACAUGUAAACCA | 63.2 | 45.9
UAUCAUAACAUGUAAACCA | 103 | 35.7
UAUCAUCACAUGUAAACCA | 77.3 | 29.3
UAUCAUGACAUGUAAACCA | 104 | 33
UAUCAUUACAUGUAAACCA | 102 | 58.9
UAUCCAAACAUGUAAACCA | 72.5 | 56.5

Sequence | cell viability (H4) [%] | cell viability (GL261) [%]
UAUCCACACAUGUAAACCA | 65.2 | 39.3
UAUCCAGACAUGUAAACCA | 88.1 | 36.5
UAUCCAUACAUGUAAACCA | 101 | 69.9
UAUCCCAACAUGUAAACCA | 39.1 | 48.3
UAUCCCCACAUGUAAACCA | 38.5 | 28.5
UAUCCCGACAUGUAAACCA | 96.1 | 58
UAUCCCUACAUGUAAACCA | 66.7 | 15.6
UAUCCGAACAUGUAAACCA | 90.5 | 63.6
UAUCCGCACAUGUAAACCA | 65.3 | 41.2
UAUCCGGACAUGUAAACCA | 69.3 | 54.5
UAUCCGUACAUGUAAACCA | 82 | 50.8
UAUCCUAACAUGUAAACCA | 92.2 | 74.2
UAUCCUCACAUGUAAACCA | 46.7 | 32.5
UAUCCUGACAUGUAAACCA | 86.7 | 60.9
UAUCCUUACAUGUAAACCA | 86.8 | 65.9
UAUCGAAACAUGUAAACCA | 105 | 81.5
UAUCGACACAUGUAAACCA | 88.8 | 47.3
UAUCGAGACAUGUAAACCA | 91.7 | 59.7
UAUCGAUACAUGUAAACCA | 114 | 70.2
UAUCGCAACAUGUAAACCA | 105 | 81.3
UAUCGCCACAUGUAAACCA | 75.1 | 17.9
